The list shows a part of the results. Rule as the data show it: active = 25% or less and inactive = the rest. Single values are uncertain, as repeats are few or missing.
Each molecule was assayed on Salmonella enterica serovar Typhimurium SL1344 (assay: intramacrophage bacterial GFP load (SAFIRE), percent of DMSO control (% of DMSO); higher = more intracellular bacteria (less inhibition)). Details: 25 µM; system: infected RAW 264.7 macrophages.
Method: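 Secondary screen of the 553 primary hits at 25 µM. (i) S. Typhimurium SL1344 grown in Mueller-Hinton broth with 0.5 µg/mL polymyxin B, OD600 read after 18 h. (ii) SAFIRE assay: RAW 264.7 macrophages infected with S. Typhimurium sifB::gfp (MOI 30); compound added 2 h post-infection; cells fixed at 18 h; GFP-positive pixel fraction per macrophage imaged by confocal microscopy and expressed as % of DMSO control.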
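Also: compounds tested were the hits of an earlier 50 µM broth growth screen of a drug-like diversity library run with polymyxin B.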

SMILES | intramacrophage bacterial GFP load
O=C(/C=C/c1cccs1)N(Cc1ccncc1)Cc1cccc(OCCc2ccc(F)cc2)c1 | inactive: 96
COc1ccccc1CCC(=O)Nc1cnn(CC(=O)NC(C)c2nc(-c3ccccc3)no2)c1 (stereo not given) | inactive: 130
CCOC(=O)C1CCCCN1C(=O)CC1(c2ccc(-c3ccccc3)cc2)CC(=O)N(C)C1=O (stereo not given) | inactive: 66.2
CN(Cc1ccccc1)C(=O)c1cn(CCCc2ccccc2)nn1 | inactive: 125
CC1CN(Cc2ccc3ncccc3c2)Cc2cc(Cl)ccc2O1 (stereo not given) | inactive: 46.1
Cc1c(CN2Cc3ccccc3OC(c3ccccc3F)C2)cnn1C (stereo not given) | active: 13.3
Cc1ccc2c(c1)CN(Cc1cn(C)nc1C)CC(c1ccsc1)O2 (stereo not given) | inactive: 65.8
O=C(c1cccc(F)c1)N(Cc1ccncc1)Cc1cccc(OCCc2ccc(F)cc2)c1 | inactive: 104
CN1C(=O)CC(CC(=O)N(CC2CC2)CC2CCCO2)(c2ccc(-c3ccccc3)cc2)C1=O (stereo not given) | inactive: 58.2
O=C(NC1CCOC1)c1cc(COc2ccc3c(c2)CCCC3)on1 (stereo not given) | inactive: 197
COc1cc(CN2CCOc3ccc(C(C)(O)COc4ccccc4)cc3C2)ccc1F (stereo not given) | inactive: 34.6
CCN(CC)c1ncccc1CNC(=O)c1cccc(Cl)c1 | inactive: 55.6
CC(=O)Nc1ccnn1C1CCN(Cc2ccc(-c3ccccc3)cc2)CC1 | active: 12.6
O=C1N(CCCc2ccccc2)CCCC12CCN(c1ccccn1)C2 (stereo not given) | active: 8.4
CN(C(=O)c1ccco1)C(Cc1ccc(F)cc1F)C1CCN(Cc2cc(Cl)ccc2O)CC1 (stereo not given) | active: 1.82
